# Data as given in PubChem BioAssay (NCATS).
# This list was built around the results that the source calls inconclusive (neither active nor inactive); the mix of calls is not that of the screen. For some of these results: No potency is given beside an inconclusive call; the fits are too rough. The source made the active and inactive calls. Unless noted, the call rests on the fitted dose curve; in most records, active means well fitted curve in the direction sought with a large enough effect; inconclusive means small, poorly fitted or top-dose-only effect, or another doubt; inactive means no such curve, though single readings can be large; an effect the other way counts as inactive or inconclusive.
# What was measured:
# [1] = qHTS of pediatric cancer cell lines to identify multiple opportunities for drug repurposing: Primary screen for SK-N-MC cells (AID 1347093); details: SK-N-MC viability, CellTiter-Glo luminescence, 48 h; activity change, negative = cytotoxic: at 46 µM (top of the series); further: potency means the concentration at half of the fitted maximal effect
# Outline: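 Metabolically active cells were quantified by ATP-dependent luminescence (CellTiter-Glo, 15 min at room temperature) following 48 h treatment. Cells had been plated at 500-1,000 per well and settled for 5 h beforehand.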
# [2] = qHTS of pediatric cancer cell lines to identify multiple opportunities for drug repurposing: Primary screen for BT-37 cells (AID 1347094); further: potency means the concentration at half of the fitted maximal effect;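 on activity change, negative = cytotoxic: plate controls were DMSO for no effect and bortezomib for full effect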
# Outline: (§1)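 Readout: CellTiter-Glo luminescence, 48 h treatment. Controls DMSO (neutral) and bortezomib 2.3 µM final (positive). Potency and efficacy taken from primary-screen concentration-response curves.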
# [3] = qHTS of pediatric cancer cell lines to identify multiple opportunities for drug repurposing: Primary screen for Saos-2 cells (AID 1347097); further: nearly all actives have a fitted effect of over 40% in size; further: potency means the concentration at half of the fitted maximal effect; on activity change, negative = cytotoxic: on the % scale 0 is the no-effect control and ±100 the full control effect
# Outline: as §1
# CP215 = experiment: qHTS profiling for inhibitors of Plasmodium falciparum proliferation (AID 504749); further: nearly all actives have a fitted effect of over 60% in size; further: potency means the concentration at half of the fitted maximal effect;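 on activity, negative = inhibition: 0% = DMSO vehicle and full inhibition = artemisinin control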; details: P. falciparum in erythrocytes, SYBR Green DNA, 72 h; series mostly up to 28.7 µM
# Outline: (§2)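 P. falciparum-infected erythrocytes (0.3% parasitemia, 2.5% hematocrit final) were exposed to compounds for 72 h at 37 C in 5% CO2, then lysed with SYBR Green buffer overnight at room temperature; parasite DNA fluorescence was normalized to artemisinin and DMSO controls.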
# DIV14 = experiment: as above; details: P. falciparum in erythrocytes, SYBR Green DNA, 72 h; series mostly up to 28.7 µM
# Outline: as §2
# GB4 = experiment: as above; details: P. falciparum in erythrocytes, SYBR Green DNA, 72 h; series mostly up to 28.7 µM
# Outline: as §2
# ICS = experiment: as above; details: P. falciparum in erythrocytes, SYBR Green DNA, 72 h; series mostly up to 28.7 µM
# Outline: as §2
# UISO = experiment: qHTS assay to identify novel small-molecules to repurpose for Merkel cell carcinoma treatment (AID 1296009); details: MCC and control cell lines, CellTiter-Glo viability, 72 h; activity change, negative = cytotoxicity: at 46 µM (top of the series); further: nearly all actives have a fitted effect of over 60% in size; further: potency means the concentration at half of the fitted maximal effect; on activity change, negative = cytotoxicity: on the % scale 0 is the no-effect control and ±100 the full control effect
# Outline: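 Cells exposed to NPC (8-point) and MIPE (11-point) compound dilutions for 72 hr at 37 degree celsius; viability read by CellTiter-Glo luminescence, normalized to no-cell and DMSO in-plate controls.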
# ATS95 = experiment: qHTS profiling for inhibitors of Plasmodium falciparum proliferation (AID 504749); further: nearly all actives have a fitted effect of over 60% in size; further: potency means the concentration at half of the fitted maximal effect;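 on activity, negative = inhibition: 0% = DMSO vehicle and full inhibition = artemisinin control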; details: P. falciparum in erythrocytes, SYBR Green DNA, 72 h; series mostly up to 28.7 µM
# Outline: as §2
# CP247 = experiment: as above; details: P. falciparum in erythrocytes, SYBR Green DNA, 72 h; series mostly up to 28.7 µM
# Outline: as §2
# CP335 = experiment: as above; details: P. falciparum in erythrocytes, SYBR Green DNA, 72 h; series mostly up to 28.7 µM
# Outline: as §2
# DIV30 = experiment: as above; details: P. falciparum in erythrocytes, SYBR Green DNA, 72 h; series mostly up to 28.7 µM
# Outline: as §2
# PC26 = experiment: as above; details: P. falciparum in erythrocytes, SYBR Green DNA, 72 h; series mostly up to 28.7 µM
# Outline: as §2
# Es-2 = experiment: Primary qHTS to identify gynecologic anti-cancer compounds using libraries of approved drugs and bioactive compounds (AID 1345084); details: Gynecologic cancer cell panel viability, ATPlite luminescence, 48 h; series mostly up to 57.5 µM; further: nearly all actives have a fitted effect of over 55% in size; further: potency means the concentration at half of the fitted maximal effect; on activity change, negative = cytotoxicity: on the % scale 0 is the no-effect control and ±100 the full control effect
# Outline: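 Cells, 1,000 per well, plated 16 h, then exposed 48 h at 37 C to compounds. Viability by ATPlite luminescence after 15 min at room temperature.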
# [4] = qHTS of pediatric cancer cell lines to identify multiple opportunities for drug repurposing: Primary screen for OHS-50 cells (AID 1347103); further: nearly all actives have a fitted effect of over 40% in size; further: potency means the concentration at half of the fitted maximal effect;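 on activity change, negative = cytotoxic: plate controls were DMSO neutral control for no effect and bortezomib positive control for full effect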
# Outline: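 Cells (500-1,000/well) rested 5 h, then received compounds for 48 h; metabolically active cells were measured by CellTiter-Glo luminescence. Final concentrations spanned up to 46 µM (MIPE, 11-point) or 0.59 nM-46 µM (NPC, 8-point) in primary screens, 11-point in follow-ups.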
# DIV17 = experiment: qHTS profiling for inhibitors of Plasmodium falciparum proliferation (AID 504749); further: nearly all actives have a fitted effect of over 60% in size; further: potency means the concentration at half of the fitted maximal effect;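 on activity, negative = inhibition: 0% = DMSO vehicle and full inhibition = artemisinin control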; details: P. falciparum in erythrocytes, SYBR Green DNA, 72 h; activity, negative = inhibition: at 28.7 µM (top of the series) unless noted
# Outline: as §2
# [5] = Primary redox qHTS assay for identification of artifact compounds. (AID 1845223); details: Amplex Red/HRP redox cycling with DTT, fluorescence; redox activity (% of DA3003): at 53.8 µM (top of the series); further: potency means the concentration at half of the fitted maximal effect;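 on redox activity (% of DA3003): 0% = DMSO and 100% = reference compound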
# Outline: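 Amplex Red (25 uM) and HRP (250 mU/mL) in HBSS, with compounds for 15 min, then 250 uM DTT for 30 min, room temperature, dark. Fluorescence 525/598 nm read; normalized to DMSO and 10 uM DA3003; Hill fit.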
# [6] = tested on: Zika virus NS2B-NS3 protease (linked construct); experiment: Primary screen NINDS Rhodamine qHTS for Zika virus inhibitors (AID 1347160); details: activity change, negative = inhibition: at 57.1 µM (top of the series) unless noted; further: nearly all actives have a fitted effect of over 55% in size; further: potency means the concentration at half of the fitted maximal effect; on activity change, negative = inhibition: on the % scale 0 is the no-effect control and ±100 the full control effect
# Outline: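 Purified NS2B-NS3 protease with the NS2B hydrophilic domain joined by a flexible linker (25 nM) in 10 mM Tris-HCl pH 8.0, 0.01% Tween 20, preincubated 15 min at RT with compound; Rhodamine110 peptide substrate 1.5 µM; fluorescence change over 15 min; 4-parameter Hill fit.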
# [7] = qHTS of pediatric cancer cell lines to identify multiple opportunities for drug repurposing: Primary screen for Rh41 cells (AID 1347108);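 further: luminescence drop marks cytotoxic hits; nearly all actives have a fitted effect of over 70% in size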
# Outline: as §1
# [8] = target: Cytochrome P450 2C9 (Homo sapiens) (UniProt P11712); experiment: Cytochrome P450 family 2 subfamily C member 9 (CYP2C9) small molecule antagonists: luciferase biochemical (cell-free) qHTS assay (AID 1645842; active means well fitted curve in the direction sought with a large enough effect in the repeat runs; inconclusive means weak or mixed curves; inactive means no such curve, though single readings can be large; an effect the other way counts as inactive or inconclusive; further: potency means the concentration at half of the fitted maximal effect; nearly all actives have a fitted effect of over 55% in size)
# UniProt P11712, sequence (P11712 whole entry, looked up): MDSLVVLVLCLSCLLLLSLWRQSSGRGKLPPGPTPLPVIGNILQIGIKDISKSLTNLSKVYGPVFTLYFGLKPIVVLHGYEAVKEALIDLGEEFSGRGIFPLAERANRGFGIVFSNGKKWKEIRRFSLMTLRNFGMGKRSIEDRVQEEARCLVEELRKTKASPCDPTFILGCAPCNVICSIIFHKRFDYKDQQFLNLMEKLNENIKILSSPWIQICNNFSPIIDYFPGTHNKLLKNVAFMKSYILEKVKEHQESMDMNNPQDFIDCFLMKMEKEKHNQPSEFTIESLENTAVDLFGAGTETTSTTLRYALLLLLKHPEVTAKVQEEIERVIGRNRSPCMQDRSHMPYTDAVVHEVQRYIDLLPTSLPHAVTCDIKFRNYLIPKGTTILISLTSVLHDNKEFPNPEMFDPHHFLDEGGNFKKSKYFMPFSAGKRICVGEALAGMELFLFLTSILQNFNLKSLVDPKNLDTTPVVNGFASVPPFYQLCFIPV
# Outline: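 Luminescence, after 20 min with luciferin detection reagent, reflected CYP2C9 turnover during a 1 h NADPH-driven reaction at 37C. Enzyme-substrate mix contained 0.4% bovine serum albumin and was preincubated with compound 10 min at room temperature.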
# Tags describe the fitted curve by direction and shape.
compound,measurement,setting,value
CCCCc1cc2ccccc2c(OCCN(C)C)n1,Potency,[1],"inconclusive [cytotoxic, full curve, poor fit]"
same,Potency,[2],"inconclusive [cytotoxic, partial curve, poor fit]"
same,Potency,[3],"inconclusive [cytotoxic, single point]"
same,Potency,CP215,"inconclusive [inhibitor, single point]"
same,Potency,DIV14,inactive
same,Potency,GB4,"inconclusive [inhibitor, single point]"
same,Potency,ICS,"inconclusive [inhibitor, single point]"
same,Potency,UISO,"inconclusive [inhibitor, partial curve]"
CN(C)CCOC(c1ccccc1)c1ccc(Br)cc1 (stereo unspecified),Potency,[1],"inconclusive [cytotoxic, single point]"
same,Potency,UISO,inactive
c1ccc(CNCCNCc2ccccc2)cc1,Potency,ATS95,"inconclusive [inhibitor, single point]"
same,Potency,CP215,"inconclusive [inhibitor, partial curve, poor fit]"
same,Potency,CP247,"inconclusive [inhibitor, partial curve]"
same,Potency,CP335,"inconclusive [inhibitor, partial curve]"
same,Potency,DIV30,"inconclusive [inhibitor, partial curve]"
same,Potency,GB4,"inconclusive [inhibitor, partial curve]"
same,Potency,ICS,"inconclusive [inhibitor, partial curve, poor fit]"
same,Potency,PC26,"inconclusive [inhibitor, partial curve]"
CCOCCn1c(C2CCN(CCc3ccc(C(C)(C)C(=O)O)cc3)CC2)nc2ccccc21,Potency,[1],"inconclusive [cytotoxic, partial curve, poor fit]"
same,Potency,Es-2,inactive
CCOC(=O)c1cnc2c(cnn2CC)c1NN=C(C)C,Potency,[2],inactive
same,Potency,[3],"inconclusive [cytotoxic, single point]"
same,Potency,[4],inactive
same,Potency,ATS95,inactive
same,Potency,DIV14,"inconclusive [inhibitor, single point]"
same,Potency,DIV17,"inconclusive [inhibitor, single point]"
same,Potency,ICS,"inconclusive [inhibitor, single point]"
same,Potency,PC26,inactive
same,Potency,Es-2,inactive
Cc1cc2c(cc1S(N)(=O)=O)S(=O)(=O)CCC2,Potency,[4],inactive
same,Potency,ATS95,"inconclusive [inhibitor, single point]"
same,Potency,CP335,"inconclusive [inhibitor, single point]"
same,Potency,ICS,inactive
same,Potency,UISO,inactive
CC[C@H](C)[C@H](NC(=O)[C@H]([C@@H](C)CC)N(C)C(C)=O)C(=O)N[C@H](C(=O)N[C@@H](CC(C)C)C(=O)[C@@]1(C)CO1)[C@@H](C)O,Potency,[5],"inconclusive [activator, partial curve, poor fit]"
same,Potency,Es-2,inconclusive
O=C(/C=C/c1ccc(O)c(O)c1)O[C@@H]1[C@@H](O)[C@H](OC2CCCCC2O)O[C@H](CO)[C@H]1O (stereo partly specified),Potency,[6],"inconclusive [inhibitor, single point]"
CCCc1cc(C)n(C)c(=O)c1CN(C)C(=O)c1cc(-c2ccc(N3CCN(C(C)C)CC3)nc2)cc2c1cnn2C(C)C,Potency,[6],inactive
CO/N=C(/C(=O)N[C@@H]1C(=O)N2C(C(=O)O)=C(Cn3nnc(C)n3)CS[C@H]12)c1csc(N)n1,Potency,[5],inactive
CC(C)(C)c1ccc(CN2CCN(C(c3ccccc3)c3ccc(Cl)cc3)CC2)cc1 (stereo unspecified),Potency,[6],inactive
c1ccc(-c2nc[nH]c2-c2ccccc2)cc1,Potency,[4],"inconclusive [cytotoxic, partial curve, poor fit]"
same,Potency,[7],inactive
CNC(=O)c1ccccc1Nc1nc(Nc2ccc3c(c2OC)CCCC(N2CCN(CCO)CC2)C3)ncc1Cl (stereo unspecified),Potency,Es-2,"inconclusive [cytotoxic, single point]"
O=C(CCCCC1CCCCC1)N1CCC(c2cnc[nH]2)CC1,Potency,[8],"inconclusive [inhibitor, single point]"
CC1=CC2/C=C(\C)CCC(O)C/C=C/C(=O)OC23C(=O)NC(CC(C)C)C3C1C (stereo unspecified),Potency,[5],inactive
same,Potency,Es-2,inactive
CC1=C2C[C@@]3(C)C(CCC[C@@H]3C)C(O)C2OC1=O (stereo partly specified),Potency,Es-2,inactive
O=C(OCc1ccccc1O[C@@H]1O[C@H](CO)[C@@H](O)[C@H](O)[C@H]1O)C1(O)C=CCCC1O (stereo partly specified),Potency,[6],"inconclusive [inhibitor, partial curve]"
Nc1nc2c(cnn2CCCc2ccc(O)cc2)c2nc(-c3ccco3)nn12,Potency,[8],active: 3.01 µM
Cc1nnc(-c2sc(NC(=O)[C@H](C(C)C)n3c(=O)[nH]c4ccccc4c3=O)nc2C)o1,Potency,Es-2,inconclusive
C[C@@H]1O[C@@H](O[C@H]2[C@H](O)[C@@H](C(=O)O)O[C@@H](O[C@H]3CC[C@@]4(C)C(CC[C@]5(C)C4CC=C4C6CC(C)(C)CC[C@]6(C(=O)O)CC[C@]45C)C3(C)C)[C@@H]2O[C@@H]2OC[C@@H](O)[C@H](O)[C@H]2O)[C@H](O)[C@H](O)[C@H]1O (stereo partly specified),Potency,[6],active: 3.1 µM
same,Potency,[5],"inconclusive [activator, partial curve, poor fit]"
same,"activity change, negative = cytotoxicity",Es-2,inactive: -1.84% [at 11.6 µM]
C=C(C)C1CC(O)C(C)C12CC(O)C1(C)OC1C2O (stereo unspecified),Potency,[5],"inconclusive [activator, partial curve, poor fit]"
Cc1ccc(S(=O)(=O)NCc2ccc(C(=O)NCCN(Cc3ccccc3)C(C)C)cc2)cc1,Potency,[6],inactive
same,Potency,Es-2,"inconclusive [cytotoxic, single point]"
CN(C)C/C=C/C(=O)Nc1ccc(C(=O)Nc2cccc(Nc3ncc(Cl)c(-c4c[nH]c5ccccc45)n3)c2)cc1,Potency,Es-2,active: 1.78 µM
COC(=O)c1cc(Cl)ccc1NS(=O)(=O)C(F)(F)F,Potency,[2],inactive
same,Potency,[3],inactive
same,Potency,[7],inactive
same,Potency,Es-2,"inconclusive [cytotoxic, single point]"
